From PMC9040859
Results are given in words; binding and its absence hold for the method and conditions named. In cells and extracts the contact can be indirect. Some binding calls cover weakened binding; strength is not graded here.

Columns and labels:
[1] = target: GST-USP7-C1 (aa 561 to 916) (UniProt Q93009); test: pull-down; GST-USP7 fusion proteins on glutathione Sepharose 4B beads incubated with 800 ug of H1299 cell lysate (virus-infected or Flag-DBP-transfected) at 4 C overnight, washed three times with RIPA buffer, immunoblot; only the target purified
[2] = target: GST-USP7-C2 (aa 913 to 1102) (UniProt Q93009); test: as above
[3] = target: GST-USP7-CD (catalytic domain, aa 212 to 561) (UniProt Q93009); test: as above
[4] = target: GST-USP7-TD (TRAF-like domain, aa 1 to 215) (UniProt Q93009); test: as above
[5] = target: FLAG-tagged WT HAdV-C5 DBP (human adenovirus C5 (HAdV-C5)) (UniProt P03265); test: co-IP; H1299 cells transfected with Flag-DBP and Myc-USP7 plasmids, harvested 48 hpt; RIPA lysates; DBP precipitated with MAb Flag-M2, blot with anti-USP7
[6] = target: FLAG-tagged WT HAdV-C5 DBP (human adenovirus C5 (HAdV-C5)) (UniProt P03265); test: co-IP; HCT116 cells cotransfected with Myc-USP7 and Flag-DBP WT or mutant plasmids, harvested 48 hpt; RIPA lysates; DBP precipitated with MAb Flag-M2, blot for USP7
[7] = target: HAdV-C5 DNA binding protein (DBP), wild type, expressed from the virus H5pg4100 (human adenovirus C5 (HAdV-C5)) (UniProt P03265); test: co-IP; Myc-USP7-transfected H1299 cells infected 24 hpt (MOI 20) with WT or mutant virus, harvested 48 h later; RIPA lysates; DBP precipitated with MAb B6-8, blot with anti-USP7
[8] = target: HAdV-C5 DNA binding protein (DBP), wild type, expressed from the virus H5pg4100 (human adenovirus C5 (HAdV-C5)) (UniProt P03265); test: co-IP; HCT116 cells infected with WT H5pg4100 (MOI 20), harvested 48 h later; RIPA lysates; DBP precipitated with an anti-DBP antibody, blot with anti-USP7 (endogenous USP7)

Substance	binding [1]	binding [2]	binding [3]	binding [4]	binding [5]	binding [6]	binding [7]	binding [8]
FLAG-tagged WT HAdV-C5 DBP (from UniProt P03265 1-529)	no binding	no binding	no binding	binds	–	–	–	–
HAdV-C5 DNA binding protein (DBP), wild type, expressed from the virus H5pg4100 (from UniProt P03265 1-529)	no binding	no binding	no binding	binds	–	–	–	–
Myc-tagged ubiquitin-specific protease 7 (USP7) (from UniProt Q93009 1-1102) (enzyme)	–	–	–	–	binds	binds	binds	–
endogenous ubiquitin-specific protease 7 (USP7) (from UniProt Q93009 1-1102) (enzyme)	–	–	–	–	–	–	–	binds
